# The list shows a part of the results.
# Tested on: PfAP2-HC AP2 domain (GST-tagged)
# Assay: gcPBM binding intensity (ln(normalized median fluorescence intensity)); higher = stronger DNA binding
# Outline: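 GST-tagged P. falciparum DNA-binding domains, expressed in E. coli (about 25 μg on average), were applied for 1 h to an Agilent 4 × 180k array of primer-extended double-stranded 36-bp intergenic genomic probes plus negative controls. The binding buffer was 1× PBS with 1% milk, 0.2 mg/ml BSA, 0.5% salmon testes DNA and 0.03% Triton X-100. Bound protein was detected with Alexa488 anti-GST antibody and scanned at 488 nm. Binding intensity is the highest Masliner-normalised natural-log median intensity across replicate spots of either probe orientation.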
row,Sequence,gcPBM binding intensity (ln)
1,ATCATCCAAGATCTTACACACATATTAAATAAATAA [CACACA_site1473],9.76
2,TTTTATTTTTTTAAATGTACACATATTAATGTAAGG [XGTACX_site319],9.42
3,TTACATAATTTCTGCTGTACCAATTTTGAGAAGTTG [XGTACX_site4023],9.53
4,AAAAGGAATATAATCATTCAAAAATATAATATATAT [GTGCAC_negctrl_site551],9.63
5,ATGTAAATATATATATGTACTAATTAGTAGTTTACG [XGTACX_site6271],9.96
6,TTTTATAAATTATAATTCTATTATCTGTTCTTTTTA [TGCATGCA_negctrl_site487],9.82
7,CATACATACATACATACACACATACAGATATATATA [CACACA_site4890],10
8,TCCTTATTACTTTTTTAAGTCGTAATGAAAGAAAAA [CACACA_negctrl_site1497],9.15
9,ATCTTAACTCTATGCACACATAAAAGTATATAAATA [CACACA_site2256],9.64
10,AAAAAAAAAAAATACACACACATATTTATTTATATA [CACACA_site7114],10.1
11,AAAAAAGGTAAAAAAAGTACAAAAAAAAAATTAAAA [XGTACX_site6993],9.44
12,TATTATAATATATTTGTGCACATAATATCTCCGCTA [GTGCAC_site9799],9.77
13,AGTAGTCTGGAGAAAAGTACATAGTATCTGATAACC [XGTACX_site2028],9.63
14,AAAAAGATAAAATATACATGCATATATAATATACAT [TGCATGCA_site488],9.82
15,TGCTTATATATAAATTGTACTGAAAGAATAAAATAA [XGTACX_site4025],9.5
16,TAATAGATGTTATGAAGTACTAAATATTAAATATAA [XGTACX_site5717],9.67
17,TTTATTTTAAATGGGTGTACTCATTCCTTATGGAAG [XGTACX_site1397],9.3
18,AAAATAATTCATGTTGGTAATAAGACTCGAGGTGAA [CACACA_negctrl_site1054],9.79
19,TTTGGATAAAAAATATGTACACACATATAGATATCT [XGTACX_site5660],9.76
20,TTGACAGGAACGTTGGTGCACGTACTGTTTTTCTTT [GTGCAC_site9389],9.65
21,GTATAATATTTTAATGCACACACACTAATAAAAAAA [CACACA_site8939],10.6
22,AAGTATAAATAAAGGCGTACACATGTAAATTATATT [XGTACX_site126],10.1
23,TGTTCATTTTTAAAATGTACATATATGTTGTTCCAT [XGTACX_site8444],9.7
24,AAAACATAAATACATACACACATAATATAGATTAAT [CACACA_site6205],10.2

# From the supplement of paper PMC11417369
